Data on 120 sequences can be found in the supplement of paper PMC10126150.

For the series, the system named is ATP. The series can be described thus: switch fluorescence ratio, 500 uM ATP over buffer (Cy3 cluster intensity, sum of 5 cycles each) (fold (ratio)); higher = stronger signal-on switching upon ATP binding; sequences stand for … in TCGTCGGCAGCGTCAGATGTGTATAAGAGACAGTTTTTTTTTTTTTTTTTTTTTTTTT…TC. Particulars: aptamer strand: ATP DNA aptamer (quencher-CACCTGGGGGAGTATTGCGGAGGAAGG + anchor), 100 nM annealed; ATP concentration: 500 uM; one replicate. The procedure, abridged:
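Clusters with intensities outside 100-1000 RFU were excluded. The remaining Cy3-labelled switching-strand clusters on a modified Illumina MiSeq flow-cell had been annealed to 100 nM quencher-labelled ATP aptamer and imaged in selection buffer, then after 15 min with 500 uM ATP at 22 °C, for five cycles separated by NaOH stripping and re-annealing. The fluorescence ratio, averaged per switch-domain sequence, is each cluster's summed target-cycle Cy3 intensity over its summed buffer-cycle Cy3 intensity.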

Sequences with one replicate were seen in a single cluster, so their values are uncertain.
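Note: ATP exposure 15 min at 22 °C before imaging.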

GTCACTCGCT: the switch fluorescence ratio was 0.96.
In the case of CATCAATAGG, the switch fluorescence ratio turned out to be 1.03.
Consider TTTGGGATAT, for which the switch fluorescence ratio turned out to be 1.02.
AGTCCCCAAG: the switch fluorescence ratio worked out at 3.68.
Then TGGACTGATT, with 0.997.
Consider ATCAGAGGT, for which the switch fluorescence ratio amounted to 1.03.
In the case of AGCGATTCGC it was 0.998; in that of GCCTGGCCGG, 0.995.
GAATGCTCGG: the switch fluorescence ratio worked out at 1.13.
On to ATCGATCAGC, for which the switch fluorescence ratio was 1.03.
Regarding CGCCATCTCT, the switch fluorescence ratio was found to be 1.23.
Consider CAGTTGGGAA, for which the switch fluorescence ratio was determined as 0.99.
Take GGGTGAGAAG: the switch fluorescence ratio stood at 0.964.
As to TCAGAACATT, the switch fluorescence ratio was found to be 0.99.
In the case of TTTATGCTGA it was 0.966; in that of AGATGGGTCG, 0.992.
As for CCTCGATCTA, the switch fluorescence ratio is 1.09.
For TAAATTCAAA, the switch fluorescence ratio stood at 0.967.
Then TACATTCCAC, with 1.26; and GAACAGGGAA, with 1.01.
As for TAGGGTCCAT, the switch fluorescence ratio came to 0.993.
In the case of GACGCTAATT it was 2.05.
In the case of TGCGGTATGC it was 1.04; in that of GCTACTCGTT, 1.05.
Take GCGAAGCATA: the switch fluorescence ratio worked out at 1.06.
As for GATTCGGGAT, the switch fluorescence ratio stood at 1.12.
As to CGCCGCATTG, the switch fluorescence ratio came to 3.03.
In the case of TTTACTGGA, the switch fluorescence ratio worked out at 1.01.
For TCAGAGCGTC, the switch fluorescence ratio worked out at 1.07.
For AGTTCATAGG, the switch fluorescence ratio was determined as 0.987.
On to CACGTATCAG, for which the switch fluorescence ratio is 0.957.
Turning to AGCGGGTGTG, the switch fluorescence ratio turned out to be 1.04.
Consider AGATTTAGTT, for which the switch fluorescence ratio came out at 1.
Regarding TCGGAGGTTA, the switch fluorescence ratio came out at 1.6.
GGAAGTCTGC: the switch fluorescence ratio turned out to be 0.962.
Take TATAAGGGAC: the switch fluorescence ratio turned out to be 1.1.
In the case of AGCGGAAACC, the switch fluorescence ratio is 1.1.
Consider GTTGTCAAAT, for which the switch fluorescence ratio is 1.06.
As to TTCACTAATA, the switch fluorescence ratio amounted to 1.02.
Take CCGTCGACGC: the switch fluorescence ratio was 1.16.
Then CCAGCGCG, with 1.11; and CTAGATGAGA, with 1.04; and CAGCATACG, with 1.83.
In the case of AAGGCTGAGC it was 1.03.
As for TCAAGTTATG, the switch fluorescence ratio turned out to be 1.02.
Take GGCTACCGTG: the switch fluorescence ratio was determined as 0.975.
As to GCAAACCACT, the switch fluorescence ratio was 1.03.
Turning to CTGGAAAGGA, the switch fluorescence ratio came to 1.
Turning to ATCAAGAATA, the switch fluorescence ratio stood at 1.05.
In the case of TAACCCGCCA it was 1.23; in that of TAACTGTACG, 1.43.
Turning to TATATCACG, the switch fluorescence ratio is 1.
For GTGCTCCGGA, the switch fluorescence ratio came to 1.05.
On to ATGGGTATAC, for which the switch fluorescence ratio was found to be 1.01.
For TGGCTGTC, the switch fluorescence ratio worked out at 0.978.
For CCGGGCGGTA, the switch fluorescence ratio was 1.15.
In the case of ACAATGCTTC it was 1.11; in that of GCCGGCTCGA, 0.943.
For the sequence ACTTAGTACG, the switch fluorescence ratio is 1.09.
Regarding CTAAATGCAA, the switch fluorescence ratio is 1.4.
Turning to CCGACGGTGG, the switch fluorescence ratio was determined as 1.01.
As to TTCTGTTGTA, the switch fluorescence ratio is 0.972.
Then ACTTTCGAGG, with 1.05.
In the case of CCGCTTTAAA it was 1.66; in that of TCACGGTGAC, 1.17.
On to ACGAGGAGTA, for which the switch fluorescence ratio stood at 0.962.
Then CTGTAGGTAT, with 1.06; and GAGCTGCTCA, with 0.975; and ATCGTACAGG, with 1.08.
Then AAACGGGCTT, with 0.973; and CCACTTACC, with 1.22.
As for AGGGCCACTT, the switch fluorescence ratio stood at 0.98.
For the sequence AATTACTCCT, the switch fluorescence ratio turned out to be 1.18.
Turning to TAATACATAT, the switch fluorescence ratio came to 1.04.
Regarding CGCGAAGAGG, the switch fluorescence ratio came to 0.978.
With AGGGCCAGTT, the switch fluorescence ratio is 1.01.
In the case of CCCCGTTGTT it was 1.23.
For the sequence ACTGTGTTT, the switch fluorescence ratio worked out at 1.
For GAATAGACAG, the switch fluorescence ratio is 0.985.
GCGCAATGAA: the switch fluorescence ratio stood at 1.11.
Then TATACGGGCT, with 1.01.
For the sequence GCTCGCGAGG, the switch fluorescence ratio amounted to 1.01.
For TGGGGCAAT, the switch fluorescence ratio worked out at 1.26.
For the sequence AAAATAGAA, the switch fluorescence ratio came to 0.98.
Turning to CTTGAGTTCA, the switch fluorescence ratio worked out at 1.07.
Regarding GTACCCGCGG, the switch fluorescence ratio worked out at 1.06.
Take CCAGTGTTAT: the switch fluorescence ratio was 1.06.
In the case of TTCTCGCGCT it was 1.27; in that of AAGAAGGATT, 0.972.
Then GGTATGGATT, with 1.
Take TGCATGTTC: the switch fluorescence ratio is 1.98.
In the case of TCTGTCGCCG it was 1.01; in that of GAGGCCACGC, 0.975; in that of GCGAAAACTT, 1.04.
As to GGCGTTCTAC, the switch fluorescence ratio is 1.02.
For ACAAAATTTA, the switch fluorescence ratio is 1.01.
Turning to GTGCAGCCAT, the switch fluorescence ratio is 0.968.
Take TTATGGATGC: the switch fluorescence ratio was 1.04.
As to ACCATTCTT, the switch fluorescence ratio was 0.982.
Turning to TGAGGCCATG, the switch fluorescence ratio is 0.985.
With GACCTCTGTG, the switch fluorescence ratio turned out to be 1.16.
As to ATGGTCTAAT, the switch fluorescence ratio came to 1.03.
In the case of GCTTAGAGTT, the switch fluorescence ratio stood at 1.02.
With GGGAGTCCG, the switch fluorescence ratio is 1.01.
ATGTGCCTGA: the switch fluorescence ratio worked out at 1.01.
As to TGACTCAG, the switch fluorescence ratio is 1.06.
TCAGGATTCG: the switch fluorescence ratio worked out at 0.989.
For GTTATTATAT, the switch fluorescence ratio turned out to be 0.996.
On to TGTCGTTAAA, for which the switch fluorescence ratio came to 0.991.
For ATTATGTGGT, the switch fluorescence ratio was found to be 0.979.
Consider GCCATCACTT, for which the switch fluorescence ratio worked out at 0.985.
As for TTTTGCTCCG, the switch fluorescence ratio came to 2.
On to TTCAGCTTAT, for which the switch fluorescence ratio came out at 1.61.
Regarding TCCCCCCACG, the switch fluorescence ratio was determined as 1.19.
For the sequence TTCATGCGAA, the switch fluorescence ratio came out at 1.19.
In the case of AAACTTGAAG, the switch fluorescence ratio was determined as 1.02.
GCTCCGTCTG: the switch fluorescence ratio is 1.41.
Consider ACCATTCAAC, for which the switch fluorescence ratio was 1.03.
As to TGATTCGCCG, the switch fluorescence ratio stood at 1.
Regarding TTGAATCCG, the switch fluorescence ratio stood at 1.02.
